Source: PubChem BioAssay AID651820 (National Center for Advancing Translational Sciences (NCATS), 2012)
Where “and” joins values, the source holds several entries; their conditions need not be identical. Equal values may be shown once. Among all 340,000 compounds or so, about 12,000 (3.5%) were called active. Inconclusive means that the source gave no clear call. Such entries were picked first, then a sample of the others. The call rests on the fitted dose curve; in most records, active means well fitted inhibition curve with a large enough effect; inconclusive means small, poorly fitted or top-dose-only effect, or another doubt; inactive means no such curve, though single readings can be large or run the other way. Where the call is inconclusive, the potency comes from a doubtful curve fit.
Potency means the concentration at half of the fitted maximal effect; tags describe the fitted curve by direction and shape.

Assay: qHTS Assay for Inhibitors of Hepatitis C Virus (HCV)
Settings: Huh7.5.1 HCVcc-Cre (HCVcc is cell-culture hepatitis C virus) infection, luciferase reporter, 44 h; series mostly up to 41.8 µM
How it was run: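 Infectious HCV cell culture screen: compound-treated cells (1,000/well, pre-plated 4 h) are infected with HCVcc-Cre at roughly 0.5 moi and grown 44 h. Infection is quantified by luciferase signal after 15 min substrate incubation at room temperature.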
With COC(=O)c1cccc(NS(=O)(=O)c2ccc(OC)cc2)c1C the Potency was inconclusive: 11.2 µM [inhibitor, single point]. In the case of O=C(CCCCn1c(=O)c2ccccc2n(Cc2ccccc2)c1=O)NC1CCN(Cc2ccccc2)CC1, the Potency is reported as inconclusive: 25.1 µM [inhibitor, single point]. In the case of O=C(c1ccncc1)N1N=C(c2ccc(Br)cc2)CC1c1ccccc1O (stereo not given), the Potency is reported as inconclusive: 10 µM [inhibitor, partial curve]. With COc1cc(NC(=O)Cc2ccc(F)cc2)cc(OC)c1OC the Potency was inconclusive: 31.6 µM [inhibitor, single point]. For CSc1ccccc1NC(=O)Cc1ccccc1, the Potency was “inactive”. In the case of CC(C)C(=O)Nc1cccc(COc2ccc(CN(Cc3ccccc3)C(=O)OC(C)(C)C)cc2)c1, the Potency is reported as active: 0.501 µM. In the case of CNC(=S)N1CCN(C(c2ccccc2)c2ccccc2)CC1, the Potency is reported as “inactive”. With CN(C)c1ccc(-n2cccc2/C=C2/SC(=Nc3ccc(F)cc3)NC2=O)cc1 the Potency was “inactive”. For CC(=O)N1CCC(=NNS(=O)(=O)c2ccc(C)c([N+](=O)[O-])c2)CC1, the Potency was “inactive”. For CCCCn1c(N)c(N(CC)C(=O)CCNC(=O)NC23CC4CC(CC(C4)C2)C3)c(=O)[nH]c1=O, the Potency was “inactive”. With Cc1cc(C)n(-c2ccc(C(=O)Nc3ccc4c(c3)OCCO4)cc2)n1 the Potency was inconclusive: 3.55 µM [inhibitor, partial curve]. In the case of CCN1CC=C2C(C1)C(c1ccc(Cl)s1)C(C#N)=C(N)C2(C#N)C#N (stereo not given), the Potency is reported as “inactive”. In the case of COc1ccc(OC)c(C(=O)c2coc3cc(Br)c(O)c(Br)c23)c1, the Potency is reported as “inactive”. With CC(=O)N1N=C(c2ccccc2)CC1c1cn(Cc2ccccc2)c2ccccc12 (stereo not given) the Potency was active: 25.1 µM. For CCOC(=O)c1sc(NC(=O)CSc2nnc(-c3ccc(OC)cc3)n2CCOC)nc1C, the Potency was “inactive and inconclusive: 22.4 µM [inhibitor, partial curve, poor fit]”. In the case of Cc1c(C(=O)N2CCCCCC2)c(S(=O)(=O)Nc2cccc(F)c2)c(C)n1C, the Potency is reported as “inactive”. In the case of COc1cccc(C(=O)NCCS(=O)(=O)N2CCN(C(=O)c3ccco3)CC2)c1, the Potency is reported as “inactive”. For COc1ccc(CNCCC(c2ccc(F)cc2)c2ccc(OC)cc2)cc1 (stereo not given), the Potency was inconclusive: 14.1 µM [inhibitor, single point]. With CCCCc1ccc(NC(=O)CSc2nc(=O)n(CCN(C)C)c3c2CCC3)cc1 the Potency was inconclusive: 10 µM [inhibitor, partial curve]. For CCCC(C(=O)Nc1ccc(C)c(S(=O)(=O)N2CCOCC2)c1)c1ccccc1 (stereo not given), the Potency was “inactive”. For O=[N+]([O-])c1ccc(N2CCN(CC(O)COc3ccccc3)CC2)cc1 (stereo not given), the Potency was inconclusive: 11.2 µM [inhibitor, partial curve]. In the case of CCOCc1c(C(=O)Nc2ccc3nc(N4CCOCC4)sc3c2)oc2ccccc12, the Potency is reported as inconclusive: 7.08 µM [inhibitor, partial curve]. With COc1cccc(NC(=O)CN(C)C(=O)c2cc(S(=O)(=O)N3CCCCC3)ccc2Cl)c1 the Potency was inconclusive: 5.62 µM [inhibitor, single point]. For CC(C)Oc1ccc(CCNC(=O)CC2C(=O)NCCN2C)cc1 (stereo not given), the Potency was inconclusive: 31.6 µM [inhibitor, single point]. In the case of COc1ccc(-c2csc3nc(-c4ccccc4)oc(=O)c23)cc1OC, the Potency is reported as inconclusive: 10 µM [inhibitor, partial curve]. With COc1ccc(NC(=O)C2C(c3ccccc3)C2(Cl)Cl)c(OC)c1 (stereo not given) the Potency was inconclusive: 31.6 µM [inhibitor, single point]. For CC1C(=O)N2CCCc3cc(NS(=O)(=O)c4ccccc4)cc1c32 (stereo not given), the Potency was inconclusive: 31.6 µM [inhibitor, single point]. With CC(=O)Nc1cccc(Nc2nc(-c3ccccc3)nc3ccccc23)c1 the Potency was active: 6.31 µM. With Cc1cccc(C2NC(=O)c3ccccc3O2)c1 (stereo not given) the Potency was inconclusive: 3.16 µM [inhibitor, single point]. For CC(C)n1c(SCc2ccccc2F)nc2c1c(=O)n(C)c(=O)n2C, the Potency was inconclusive: 22.4 µM [inhibitor, single point]. With N/C(=N\OC(=O)c1cc([N+](=O)[O-])ccc1Cl)c1ccccn1 the Potency was active: 11.2 µM. For CCN(CC)C(=O)Cn1c(=O)n(Cc2ccc(F)cc2)c(=O)c2sccc21, the Potency was “inactive”. With C=CCc1ccc(OCCOc2cccc(/C=N/n3cnnc3)c2)c(OC)c1 the Potency was inconclusive: 15.8 µM [inhibitor, single point]. For Cc1cccc(-n2c(C)c(-c3ccccc3)[nH]c2=S)c1, the Potency was inconclusive: 10 µM [inhibitor, partial curve]. For O=C(NCCCN1CCN(CCCNC(=O)c2cc([N+](=O)[O-])ccc2Cl)CC1)c1cc([N+](=O)[O-])ccc1Cl, the Potency was inconclusive: 31.6 µM [inhibitor, single point]. With CCc1ccccc1OCC(=O)Nc1cccc(S(=O)(=O)NC2=NCCC2)c1 the Potency was inconclusive: 31.6 µM [inhibitor, single point]. With Cn1c(=O)n(C)c2cc([N+](=O)[O-])c(N3CCN(C(=O)c4ccc(Cl)cc4)CC3)cc21 the Potency was inconclusive: 11.2 µM [inhibitor, partial curve]. For Cc1ccccc1Oc1cc(-n2ncc(Cl)c(Cl)c2=O)ncn1, the Potency was inconclusive: 10 µM [inhibitor, partial curve, poor fit]. For O=C(Cc1ccc(Cl)cc1)Nc1ccc2oc(-c3ccncc3)nc2c1, the Potency was inconclusive: 10 µM [inhibitor, partial curve]. With Cc1ccc(S(=O)(=O)/N=C(\N)Nc2nc(C)c3cc(C)c(C)cc3n2)cc1 the Potency was inconclusive: 8.91 µM [inhibitor, partial curve]. In the case of CCOc1ccc(NC2=C(OC)C(=O)c3ccccc3C2=O)cc1, the Potency is reported as inconclusive: 31.6 µM [inhibitor, single point]. With CC1CN(C(=O)COC(=O)c2cccc(S(=O)(=O)N3CCc4ccccc43)c2)CC(C)O1 (stereo not given) the Potency was inconclusive: 5.01 µM [inhibitor, single point]. In the case of O=C(c1ccccc1F)N1CCC2(CC1)OCCO2, the Potency is reported as inconclusive: 0.501 µM [inhibitor, partial curve, poor fit]. With CS/C(=C\C(=O)c1ccco1)Nc1ccccc1Cl the Potency was inconclusive: 5.62 µM [inhibitor, full curve]. With COc1ccc(-c2noc(CCC(=O)NCc3cccnc3)n2)cc1OC the Potency was “inactive”. With CCOc1ccc(NC(=O)c2ccc3snnc3c2)cc1 the Potency was “inactive”. For COc1ccc(-c2cc(C(F)(F)F)nc(SCC(=O)N(C)Cc3cnn(C)c3C)n2)cc1OC, the Potency was inconclusive: 11.2 µM [inhibitor, single point]. For c1nc(SSc2ncnc3nc[nH]c23)c2[nH]cnc2n1, the Potency was “inactive”. With Cc1ccc(-n2ncc(Br)c(Br)c2=O)cc1 the Potency was inconclusive: 22.4 µM [inhibitor, single point]. For COc1ccc([N+](=O)[O-])cc1NC(=O)C(C)OC(=O)/C=C/c1ccco1 (stereo not given), the Potency was “inactive”. With COCCCNC(=O)c1c(NC(=O)C2COc3ccccc3O2)sc2c1CCCC2 (stereo not given) the Potency was inconclusive: 0.316 µM [inhibitor, full curve, poor fit]. In the case of Cc1cc(Br)ccc1NC(=O)CN(C)C(=O)CN1C(=O)NC(C)(C2CC2)C1=O (stereo not given), the Potency is reported as “inactive”. For Cc1ccc(S(=O)(=O)N2CCN(C(=O)N(C)C)CC2)cc1C, the Potency was inconclusive: 5.62 µM [inhibitor, single point]. For c1ccc(CC2CCN(Cc3nc(-c4ccccc4)no3)CC2)cc1, the Potency was inconclusive: 31.6 µM [inhibitor, single point]. With Cc1ccc(CN(CC(=O)NC2CCCC2)C(=O)c2csnn2)cc1 the Potency was “inactive”. In the case of Clc1ccc(OCCOCCOc2cccc3cccnc23)c(Br)c1, the Potency is reported as inconclusive: 12.6 µM [inhibitor, single point]. In the case of C/C(N)=C(/C#N)C(=O)CSc1nc2cc(Cl)ccc2c(=O)n1-c1ccc(C)cc1, the Potency is reported as active: 7.08 µM. With CCN1CCN(c2ncc3c(n2)CC(c2cc(OC)c(OC)c(OC)c2)CC3=O)CC1 (stereo not given) the Potency was inconclusive: 4.47 µM [inhibitor, full curve, poor fit]. With O=C1CN(C(=O)/C=C/c2ccc(Cl)cc2)c2ccccc2N1 the Potency was inconclusive: 11.2 µM [inhibitor, single point]. For CC1=Nc2ccccc2/C1=C/c1sc(=N)n(-c2nccs2)c1O, the Potency was “inactive”. With CN1CCCN(C(c2ccccc2)c2ccc(Cl)cc2)CC1 (stereo not given) the Potency was active: 1.26 µM. With Cc1ccc(C(=O)C(C(=O)/C=C/c2ccccc2)=C2SCCCS2)cc1 the Potency was inconclusive: 12.6 µM [inhibitor, partial curve]. With Cc1nc(N/N=C/c2ccc(O)cc2)c2cnn(-c3ccccc3)c2n1 the Potency was inconclusive: 22.4 µM [inhibitor, single point]. In the case of COc1cccc(N2CCN(C(=O)CC(C)(C)CC3=NS(=O)(=O)c4ccccc4N3)CC2)c1, the Potency is reported as active: 11.2 µM. With Nc1ncnc2c(C3OC(CO)C(O)C3O)scc12 (stereo not given) the Potency was inconclusive: 0.316 µM [inhibitor, full curve, poor fit]. In the case of O=C(Nc1ccccn1)C(=O)Nc1ccccn1, the Potency is reported as “inactive”. With O=C(Nc1nc(-c2cccs2)cs1)c1ccco1 the Potency was inconclusive: 14.1 µM [inhibitor, single point]. In the case of C=CCn1c(SCc2c(C)noc2C)nc2sc3c(c2c1=O)CCC(C)C3 (stereo not given), the Potency is reported as inconclusive: 35.5 µM [inhibitor, partial curve]. With O=C(Cc1ccccc1)N1CCC(c2nc(-c3ccc(F)cc3)no2)CC1 the Potency was inconclusive: 31.6 µM [inhibitor, single point]. For CCn1cc(CCC(=O)NC(C)c2ccccc2)c2ccccc21 (stereo not given), the Potency was inconclusive: 11.2 µM [inhibitor, partial curve].
